# In paper PMC12136788:
# The other results are listed elsewhere or left out.
# B1: chr6:107883018:107883119:-|CDS|ENSG00000025796|unk|total|mutant (ssRNA)
# RNA: GGGAGUUCUACAGUCCGACGAUCAAGGAAGAUGAAGAAGAAGUUUCAGAUAAGGGCAGUGAUUCUGAAGAAGAAGAAACCAACCGAGAUUCCCAAAGUGAGAAAGAUGAUGGCCGUGACAGAGACUCUGACCGAGAGCAAGAUCAACAGAGGAUUGAGCAUCA
# B2: chr11:2397021:2397122:+|3pUTR|ENSG00000110651|msi1|total|mutant (ssRNA)
# RNA: GGGAGUUCUACAGUCCGACGAUCUUGGGGUUUUGUUUUUGUUCUGAACUUUCCUGUUACCUUUUCAGGGCUGACGUCACAUGCCGGUGGCGUGUAUGAGUGGAGACGGGCCUGGGUCUUGGGGACUGGAGGGCAGGGGUCCUUCAACAGAGGAUUGAGCAUCA
# B3: ENSG00000107863:be:win_5101|CDS|ENSG00000107863|bound_else_gene|NA|bound_elsewhere_windowed (ssRNA)
# RNA: GGGAGUUCUACAGUCCGACGAUCGAUACUCUUUCCAGGAAAAAAUCAGCUAGAUUCAAGUCAGAUAGUGGAAGUCUAGGAGAUGCCAAGAAUGAGAAAGAAGCACCUUCGUUAACUAAAGUGUUUGAUGUUAUGAAAAAAGGACAACAGAGGAUUGAGCAUCA
# B4: chr12:68839811:68839877:+|CDS_3pUTR|ENSG00000135679|msi1_unk|total|mutant (ssRNA)
# RNA: GGGAGUUCUACAGUCCGACGAUCAUAAGCCCUGCCCAGUAUGCCGACAACCAAUUCAAAUGAUUGUGCUAACUUAUUUCCCCCCGUUGACCUGUCUAUAAGAGAAUUAUAUAUUUCUAACUAUAUAACCCCCGGAAUUCCGACCAACAGAGGAUUGAGCAUCA
# B5: ENSG00000118785:stop:overlap|stop_codon|ENSG00000118785|stop_codon|NA|stop_codon (ssRNA)
# RNA: GGGAGUUCUACAGUCCGACGAUCAGUUUCGCAGACCUGACAUCCAGGUAAAUCCUUUAACAGACACACCUGAUGGUUCUGACUAGCGCUCAAGUCUAGGAAACCACAGUUUGCAUAUUCAUUCAUUCAUUCAUCCAUUCAUUCCAACAGAGGAUUGAGCAUCA
# B6: ENSG00000070961:be:win_4801|3pUTR|ENSG00000070961|bound_else_gene|NA|bound_elsewhere_windowed (ssRNA)
# RNA: GGGAGUUCUACAGUCCGACGAUCCUUGUUUGUAAACAUAAAUAAAUAUGCCCUUUUAUUAAAUAAAUUCAUGGCAAUGUUUUUUUAAAAGACAUUUCAGCUUCUUUACUCAGUUCUGCAUAUACAGUGCAUCAGUCUGUUCUCCAACAGAGGAUUGAGCAUCA
# B7: ENSG00000198589:be:win_8651|3pUTR|ENSG00000198589|bound_else_gene|NA|bound_elsewhere_windowed (ssRNA)
# RNA: GGGAGUUCUACAGUCCGACGAUCUUGCUCAAAGAAGCAAAAUAUUUUUUAAAGUUAUUAAUAAUUGCUAUUUUUGUAGUCUUUGCUUGACUUUUUUGGGGGGGAUUAGCAAAGCAGAAAACUGGCUGCUGGGUUCUGUAGUUUCAACAGAGGAUUGAGCAUCA
# B8: chrX:8795077:8795420:-|CDS|ENSG00000183304|control|control|control (ssRNA)
# RNA: GGGAGUUCUACAGUCCGACGAUCAGCAGCAGAAGCCGCAGCAGCAGCAGAAGCCGCAGCAGCAGCAGCAGAAGUAAUAGUAGUAGAAGACGAAGAGGAGGAAGAGAAGGAGGAGGAGGAGGAGAAAGAAGAGGAGGAAGAAGACAACAGAGGAUUGAGCAUCA
# B9: chr10:11920118:11920232:-|3pUTR|ENSG00000151461|unk|total|mutant (ssRNA)
# RNA: GGGAGUUCUACAGUCCGACGAUCGCCGUAUAUUCCGUCGGAGAGCACAUCUGUAUGCGACAACUUGAUUACAUCUUUUUUUCCCGCUAUUUUGCAUUUUUUCUUUUACCAUGUUUCAGUUUCUGCAUGCCGAUUUAAAUAAAACAACAGAGGAUUGAGCAUCA
# B10: chr3:66417149:66417250:-|CDS|ENSG00000144749|msi1|FALSE|unique (ssRNA)
# RNA: GGGAGUUCUACAGUCCGACGAUCCAACAAGAUUCGCAGCGUGGAGGGGAGCCAGCUGAAGGCCUACCUUUCCUUAGAAGUGUUAGAUCUGAGUUUGAACAACAUCACGGAAGUGCGGAACACCUGCUUUCCACACGGACCGCCCAACAGAGGAUUGAGCAUCA
# B11: ENSG00000132640:stop:overlap|stop_codon|ENSG00000132640|stop_codon|NA|stop_codon (ssRNA)
# RNA: GGGAGUUCUACAGUCCGACGAUCACCUUAUCCCGGCCCCAAACUGGCAGGGUCUUUAUCCCACCAUUAGAGAGAGUAUGUUUUAGCUGUUGGGAGCUCUGUGUUCCAUGCGAUGUUUUACGGAGAACUUGCAGAGGACAAAGACAACAGAGGAUUGAGCAUCA
# B12: chr13:36848462:36848578:-|3pUTR|ENSG00000120693|unk|FALSE|unique (ssRNA)
# RNA: GGGAGUUCUACAGUCCGACGAUCAAAUACAUAGAAUGUAUACUGUUCUUAUUUUUUUUAAUCACCGUUUGUUUUGUGCUUUCUAGUUAACCUGAUGCCAGUACAGUGCAAUUGGAAAAGCAGGACUUUGGUGCCUGUGCUAUACAACAGAGGAUUGAGCAUCA
# B13: chr11:111726697:111726798:+|3pUTR|ENSG00000170145|unk|FALSE|unique (ssRNA)
# RNA: GGGAGUUCUACAGUCCGACGAUCGGAAGCUUCCAAGCAGUUUUCUCUUCAUCACUACUAACAAACAAAACACUAAGAAGGCUUAGUAUCGCUCUUUUUCUGCGGGGCUACUCUGAAGUACUGACUUGCUUUCCAGUCUGAUUCCAACAGAGGAUUGAGCAUCA
# B14: chr13:27440139:27440263:-|CDS|ENSG00000122033|unk|FALSE|unique (ssRNA)
# RNA: GGGAGUUCUACAGUCCGACGAUCAAUGAAGGAAAAAAGACAAAAAAGAAUAAAACAGCUUUUAGUAACGUUGGAAGAAAAAUUAGUCAGCGAGUUAUUCACUUAUUUGAUGAGAAGGGCAAUGAUUUGGGAAACAUGCACCGACAACAGAGGAUUGAGCAUCA
# B15: chr10:131092390:131093161:-|three_prime_utr|ENSG00000176769|control|control|control (ssRNA)
# RNA: GGGAGUUCUACAGUCCGACGAUCGUGAAUUACUUCGUUUCUCCAGGAUUCCCGCAGUGUUGAGGAAUUCCUUACUCUGUCCCUAGGUCUCAGUCUCGUUUCUGAGUAGCAGCAAUAGGGUUUUCAUCAUUCAUCAUAGUGACACAACAGAGGAUUGAGCAUCA
# B16: ENSG00000198589:be:win_551|CDS|ENSG00000198589|bound_else_gene|NA|bound_elsewhere_windowed (ssRNA)
# RNA: GGGAGUUCUACAGUCCGACGAUCCUCCACAUGCUGGGAAGUUGCUGUCUGUGUUAAAGCAUAUGCCUCAGAAGUAUGGUCCUGAUGCCUUUUUUAACUUUCCAGGAAAGAGUGCUGCAGCUAUUGCAUUACCUCCUAUAGCCACAACAGAGGAUUGAGCAUCA
# B17: chr10:87814449:87814585:-|CDS|ENSG00000138138|unk|total|mutant (ssRNA)
# RNA: GGGAGUUCUACAGUCCGACGAUCUUUAAUUUUCCGUUUGACAAUAUUUGGUGCAGUGACAUACUUUACUAUCAAAUGGAUGGCCGAUGCAAUUGAUCCAACCAGAAAGCAAAAAGCCGAAGCUCAGAAACAGGUAUGAUUGAACAACAGAGGAUUGAGCAUCA
# B18: chr15:65118290:65118391:-|3pUTR|ENSG00000090470|msi1|FALSE|unique (ssRNA)
# RNA: GGGAGUUCUACAGUCCGACGAUCACUUCCUUGUGUGUUGAUGGGUAAGUACACUCAAACACUGAAUACAGGUGUGUGAUGGGUAGAUUUCACAGCCCUUCUACUAAUAGUGAGUGUGAAGGCAAGCUUGAUGCAAAACCUCCUCAACAGAGGAUUGAGCAUCA
# B19: ENSG00000198589:be:win_201|CDS|ENSG00000198589|bound_else_gene|NA|bound_elsewhere_windowed (ssRNA)
# RNA: GGGAGUUCUACAGUCCGACGAUCAACUGUCUUUAACCUGUUGGUAGGAGGACAGUUUGAUCUGGAAAUGAAUUUCAUUAUCCAAGAAGGUGAGAGUAUUAACUGCAUGGUGGACCUACUGGAAAAAUGUGACAUUACGUGCCACAACAGAGGAUUGAGCAUCA
# B20: chr8:122953881:122953982:+|CDS|ENSG00000178764|msi1|total|mutant (ssRNA)
# RNA: GGGAGUUCUACAGUCCGACGAUCGAGUCGAGCGUUGUGGAUUACGUGGAGGUGACGGUCGGGGAGGAGGAUGCGAUCUCAGACCGAUCAGACCGCUGGAGUCAGGCUGCGGCAGAAGGUGUGUCGGAACUGGCUGAAUCAGACCAACAGAGGAUUGAGCAUCA
# B21: chr8:118923556:118924373:-|three_prime_utr|ENSG00000164761|control|control|control (ssRNA)
# RNA: GGGAGUUCUACAGUCCGACGAUCACUAUAUUUUCCCUUAUUACUGCUUGCAGUAAUUCAACUGGAAAUUAAAAAAAAAAAACUAGACUCCAUUGUGCCUUACUAAAUAUGGGAAUGUCUAACUUAAAUAGCUUUGAGAUUUCACAACAGAGGAUUGAGCAUCA
# B22: chr9:130903550:130903651:-|3pUTR|ENSG00000130720|msi1|FALSE|unique (ssRNA)
# RNA: GGGAGUUCUACAGUCCGACGAUCAAAUACCCGGCAUUAUGGGGACAGAGAGCAGGGGGCAGACAGCACCCCUGGAGUCCUCCUAGCAGAUCGUGGGGAACGUCAGGUCUCUCUGAGGUCAGGUCUGAGGCCAGUAUCCUCCAGCAACAGAGGAUUGAGCAUCA
# Molecular target: T1, UNK ZnF1-6 (called full-length) (human, UniProt Q9C0B0 30-357)
# T1 sequence: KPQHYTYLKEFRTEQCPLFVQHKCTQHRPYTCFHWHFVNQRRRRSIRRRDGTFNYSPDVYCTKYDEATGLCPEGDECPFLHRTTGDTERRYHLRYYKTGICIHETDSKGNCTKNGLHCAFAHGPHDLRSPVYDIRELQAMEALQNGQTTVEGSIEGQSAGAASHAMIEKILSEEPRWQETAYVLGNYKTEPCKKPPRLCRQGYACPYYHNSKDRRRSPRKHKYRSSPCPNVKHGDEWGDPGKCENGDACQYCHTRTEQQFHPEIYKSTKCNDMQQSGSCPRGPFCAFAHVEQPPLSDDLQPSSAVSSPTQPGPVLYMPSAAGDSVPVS
# Experiment: nsRBNS (natural sequence RNA bind-n-seq); RBNS binding buffer (assumed for nsRBNS): 25 mM Tris pH 7.5, 150 mM KCl, 3 mM MgCl2, 0.01% Triton X-100, 500 ug/ml BSA, 20 U/ml SUPERase-In, 4 C; UNK is unkempt and MSI1 is Musashi-1; names of the RNAs are library labels; protein concentration not given here; high values mean tight binding
row,Binder,binding signal [enrichment R]
1,B1,0.797
2,B2,1.67
3,B3,0.416
4,B4,0.616
5,B5,0.593
6,B6,0.703
7,B7,1.45
8,B8,1.15
9,B9,0.775
10,B10,0.658
11,B11,1.11
12,B12,1.82
13,B13,0.325
14,B14,0.738
15,B15,0.483
16,B16,0.533
17,B17,0.349
18,B18,0.357
19,B19,0.339
20,B20,1.03
21,B21,0.529
22,B22,0.848
